Legend:
ROCK1 = ROCK1 (Homo sapiens (Human), UniProt Q13464); experiment: Radioisotope filter binding kinase assay; format: biochemical; details: 10 uM ATP, read-out: IC50 estimates, ROCK1
Experimental: Experiment was conducted by Absorption Systems. […] The radioisotope filter binding assay is considered the gold standard for kinase profiling. The assay directly detects the true product without the use of modified substrates, coupling enzymes, or detection antibodies. Compounds are incubated with kinase, substrate, cofactors, and radioisotope-labeled ATP (^33P-Y-ATP). The reaction mixtures are then spotted onto filter papers, which bind the radioisotope-labeled catalytic product. Unreacted phosphate is removed via washing of the filter papers.
• Prepare kinase-specific substrate in freshly prepared Base Reaction Buffer (20 mM Hepes (pH 7.5), 10 mM MgCl2, 1 mM EGTA, 0.02% Brij35, 0.02 mg/ml BSA, 0.1 mM Na3VO4, 2 mM DTT, 10 µM ATP, and 1% DMSO). • Add kinase enzyme into the substrate solution and gently mix. • Add compounds in DMSO into the kinase reaction mixture by Acoustic technology (Echo550; nanoliter range), incubate for 20 minutes at room temperature. • Add ^33P-ATP (specific activity 10 μCi/μl)) into the reaction mixture to initiate the reaction. • Incubate kinase reaction for 2 hours at room temperature. • Spot reactions onto P81 ion exchange paper. • Detect kinase activity by filter-binding method.

PDK1 = PDK1 (Homo sapiens (Human), UniProt O15530); experiment: AGC Kinase Selectivity Profiling (ADP-Glo); format: biochemical; details: 1 μM compound; AGC Panel; read-out: Percent enzyme activity inhibition, PDK1
UniProt O15530, sequence (O15530 whole entry): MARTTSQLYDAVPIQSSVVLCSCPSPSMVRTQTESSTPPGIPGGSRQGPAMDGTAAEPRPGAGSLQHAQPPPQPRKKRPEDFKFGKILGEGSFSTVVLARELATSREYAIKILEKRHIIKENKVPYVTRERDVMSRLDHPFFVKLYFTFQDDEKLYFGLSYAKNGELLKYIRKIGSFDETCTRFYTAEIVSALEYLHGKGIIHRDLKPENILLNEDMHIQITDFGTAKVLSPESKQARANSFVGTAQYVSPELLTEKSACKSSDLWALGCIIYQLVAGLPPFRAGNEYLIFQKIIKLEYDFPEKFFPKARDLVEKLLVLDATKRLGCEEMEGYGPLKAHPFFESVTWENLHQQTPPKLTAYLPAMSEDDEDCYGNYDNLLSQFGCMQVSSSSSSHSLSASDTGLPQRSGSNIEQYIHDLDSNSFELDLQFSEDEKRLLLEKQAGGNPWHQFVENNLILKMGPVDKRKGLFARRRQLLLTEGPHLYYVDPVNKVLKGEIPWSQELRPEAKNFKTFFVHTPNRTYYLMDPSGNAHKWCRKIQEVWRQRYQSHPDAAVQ
From the text: ROCK1 (also called ROCK I, ROKβ, Rho-kinase β, or p160ROCK) and ROCK2 ((also known as ROCK II, ROKα, or Rho kinase) belong to AGC family of serine/threonine kinases. The group of AGC kinases consists of 63 evolutionarily related serine/threonine protein kinases comprising PDK1, PKB/Akt, SGK, PKC, PRK/PKN, MSK, RSK, S6K, PKA, PKG, DMPK, MRCK, ROCK, NDR, LATS, CRIK, MAST, GRK, Sgk494, and YANK, while two other families, Aurora and PLK, are the most closely related to the group (Leroux et al., AGC kinases, mechanisms of regulation and innovative drug development, Semin Cancer Biol. 2018 February; 48:1-17).

Row | Compound | IC50 (ROCK1) [nM] | inhibition at 1 µM (PDK1) [%]
1 | Cl.Cl.NCC(C(=O)Nc1ccc2cnccc2c1)c1ccc(B(O)O)cc1 (centres unmarked) [Compound 10•2HCl] | 10 | 
2 | Cc1ccc(C(=O)OCc2ccc([C@@H](CN)C(=O)Nc3ccc4cnccc4c3)cc2)c(C)c1.Cl.Cl [Netarsudil•2HCl, Netarsudil, reference compound] |  | 77

From patent US12479866B2, “Boron-containing rho kinase inhibitors” (Percipiad, Inc., priority 2019, dated 2025)
